This is one part of the list.
test system: T1, Caupolican (Caup) homeodomain DNA-binding domain; assay: PBM E-score (8-mer, recovered from the published 9-mer minima) (E-score (dimensionless, -0.5 to 0.5)); Drosophila protein; higher = stronger relative binding preference, active = 0.31 or more
T1 sequence: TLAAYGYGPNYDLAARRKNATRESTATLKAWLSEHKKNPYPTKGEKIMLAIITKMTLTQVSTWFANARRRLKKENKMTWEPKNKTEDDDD
In short: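 Caup's homeodomain DNA-binding domain (residues 214-303) was made by in vitro transcription and translation and applied at 100 nM to custom-designed protein binding microarrays. Each value is an enrichment score that gives relative binding preference for a short DNA word, with higher meaning stronger. The 8-mer values were recovered from published 9-mer scores, each of which was the minimum of its two constituent 8-mer scores. A cutoff of 0.31 marks candidate sites.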

| Sequence | PBM E-score |
| --- | --- |
| AACCATCG | inactive: 0.0347 |
| AGCTCAGC | inactive: -0.115 |
| AAGCGGGG | inactive: -0.172 |
| CGTTTAAG | inactive: -0.119 |
| ACGCAGGG | inactive: -0.113 |
| CGCACTGC | inactive: -0.189 |
| GAAAAACC | inactive: -0.008 |
| AAATTTAC | inactive: 0.189 |
| CTCGGTGC | inactive: -0.176 |
| CTCCAACC | inactive: -0.171 |
| CGGTTCTA | inactive: -0.118 |
| ATGCCCAC | inactive: -0.0637 |
| CAATTGCC | inactive: -0.0272 |
| GCGTCGCC | inactive: -0.171 |
| CACCGCCA | inactive: -0.113 |
| GGATCACA | inactive: 0.0901 |
| AGAGATGG | inactive: 0.0058 |
| ACAAATCA | inactive: 0.198 |
| GTGATAAC | inactive: 0.222 |
| TAGAGAGA | inactive: -0.0282 |
| CCCCAGGG | inactive: -0.297 |
| ACCTCTGG | inactive: -0.178 |
| CAGACCCC | inactive: -0.195 |
| GAACGATA | inactive: 0.153 |

| Sequence | PBM E-score |
| --- | --- |
| ACATGAGC | inactive: 0.198 |
| AGTAACAG | inactive: 0.19 |
| GACGAATC | inactive: 0.0709 |
| AAGCCCGG | inactive: -0.163 |
| AGATACCC | inactive: -0.00764 |
| CGCTCATA | inactive: -0.0281 |
| CAACCAAG | inactive: 0.0686 |
| CGGGGGCA | ≥ -0.24 |
| CAAAAACG | inactive: -0.0135 |
| CTCGAAAA | inactive: -0.0617 |
| CAGACCTA | inactive: 0.00607 |
| AACTCCGC | inactive: -0.15 |
| CAACGACA | inactive: 0.26 |
| CCTTAGTA | inactive: -0.0288 |
| ATTCAAAG | inactive: 0.0118 |
| CGTAACAG | inactive: 0.154 |
| ACGGGGAG | inactive: -0.223 |
| CGCGGGTC | inactive: -0.163 |
| ATCATGCG | inactive: 0.0113 |
| ATCCTACA | inactive: 0.137 |
| CGCAAGGC | inactive: -0.208 |
| CGGAGCAC | inactive: -0.114 |
| GGGCGCAA | inactive: -0.179 |
| GGATTATA | inactive: -0.00359 |

| Sequence | PBM E-score |
| --- | --- |
| AACGTCAC | inactive: -0.00605 |
| ATGATCCC | inactive: -0.0587 |
| CACCGAAG | inactive: -0.0951 |
| GATAAATA | inactive: 0.151 |
| TGGTTGAA | inactive: 0.0746 |
| GGCTAAAC | inactive: -0.0281 |
| AGTTCGAG | inactive: 0.0211 |
| AAATTCAC | inactive: 0.077 |
| TGGCTAAA | inactive: 0.00869 |
| GTAAAAAA | inactive: 0.0383 |
| GTGCGCCA | inactive: -0.158 |
| AAACGAAG | inactive: -0.00067 |
| CGACGTTC | inactive: -0.203 |
| GATCAAAA | inactive: 0.0532 |
| GCGACTCC | inactive: -0.0913 |
| TGTCATAA | active: 0.338 |
| ATTCCTAA | inactive: 0.0573 |
| CTCTGCAA | inactive: -0.0109 |
| ATAAGGCC | inactive: -0.133 |
| AGATGGGA | inactive: -0.0571 |
| AGTCGATA | inactive: -0.00147 |
| AGCAATGC | inactive: -0.00851 |
| AGACAGAT | inactive: 0.15 |
| AACACGGC | inactive: 0.166 |

| Sequence | PBM E-score |
| --- | --- |
| AGTCTGGG | inactive: -0.147 |
| AACTCTTG | inactive: 0.0747 |
| ACTCTTCA | inactive: 0.0264 |
| CGTCTCTC | inactive: -0.0963 |
| ACCGGTTG | inactive: 0.00831 |
| ACTCCCCC | inactive: -0.321 |
| ACTTGAAC | inactive: 0.132 |
| AAGTATAC | inactive: 0.227 |
| GTGACGCA | inactive: -0.0129 |
| ACGTCTGG | inactive: -0.0138 |
| CACTAATG | inactive: 0.0246 |
| ACCAGTCT | inactive: 0.00015 |
| ATTATGTA | active: 0.327 |
| ATCTTAGA | inactive: 0.0187 |
| CACAGCGA | inactive: 0.0905 |
| CCGTTACC | inactive: 0.0115 |
| AGACGGAG | inactive: -0.147 |
| ATACGCTA | inactive: 0.00481 |
| GATATGAA | inactive: 0.0673 |
| GTCGAATA | inactive: 0.0987 |
| CATAATGG | inactive: 0.0184 |
| CAGGAGGA | inactive: -0.0887 |
| GAATGGCA | inactive: -0.0357 |
| ATCTCGAC | inactive: -0.00436 |

| Sequence | PBM E-score |
| --- | --- |
| CGCAGATA | inactive: -0.0365 |
| ACGAGCGA | inactive: 0.0451 |
| GACTACAA | inactive: 0.222 |
| TCCGTACA | inactive: 0.124 |
| ACAAAAAC | inactive: 0.117 |
| GAACATAC | active: 0.331 |
| GGCAACAC | inactive: 0.072 |
| AGGCAGTA | inactive: -0.0224 |
| TAACGAAA | inactive: 0.157 |
| GTATCTAA | inactive: 0.188 |
| GCGGAAAC | inactive: -0.0869 |
| ATACCATC | inactive: 0.165 |
| ATCTGATG | inactive: 0.072 |
| ATAATCGG | inactive: 0.0788 |
| CGTCCCCC | inactive: -0.323 |
| ACGGTGTA | ≥ 0.257 |
| AGTCGTTA | inactive: 0.0838 |
| CTAGTTGC | inactive: 0.0796 |
| AAGAATAT | inactive: 0.0488 |
| GCGCACAA | inactive: 0.0432 |
| ACTCCTCG | inactive: -0.0284 |
| ACAGTGCG | inactive: -0.105 |
| GAGCGATA | inactive: -0.00508 |
| ACAATTAG | inactive: 0.13 |

| Sequence | PBM E-score |
| --- | --- |
| CCCGCACC | inactive: -0.178 |
| GATCATCC | inactive: -0.0237 |
| ATGTTCCG | inactive: 0.255 |
| AACCGGAT | ≥ 0.084 |
| CGGACGGA | inactive: -0.171 |
| GGGGTTAA | inactive: -0.11 |
| AGAGTTTA | inactive: 0.0386 |
| CACGTCCG | inactive: -0.0777 |
| AGAGACAT | inactive: 0.203 |
| AGTGACGA | inactive: 0.0465 |
| GAGTGTAC | inactive: 0.121 |
| GTAGCACA | inactive: 0.0337 |
| AAACTGGT | inactive: 0.0233 |
| GACACTGA | inactive: 0.109 |
| CCTTGAAC | inactive: -0.0497 |
| ACCAATCC | inactive: -0.0418 |
| ACAAGGCC | inactive: 0.188 |
| CTGATTTA | inactive: 0.138 |
| CTTATACA | inactive: 0.11 |
| AGCTGGAT | inactive: 0.028 |
| GGTAAGAC | inactive: -0.114 |
| CTCAAATA | inactive: 0.0843 |

From the supplement of paper PMC3724861
